# Results from the supplement of paper PMC11417369.
# Some of the results follow.
# Tested on: PfHDP1 homeodomain (GST-tagged)
# Experiment: gcPBM binding intensity (ln(normalized median fluorescence intensity)); higher = stronger DNA binding
# In short: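 Binding intensity values are the highest Masliner-normalised natural-log median intensity among replicate spots of either probe orientation. The binding step lasted 1 h in 1× PBS with 1% milk, 0.2 mg/ml BSA, 0.5% salmon testes DNA and 0.03% Triton X-100, using GST-tagged P. falciparum DNA-binding domains expressed in E. coli on an Agilent 4 × 180k array of primer-extended double-stranded 36-bp intergenic genomic probes plus negative controls. Alexa488 anti-GST antibody and a 488 nm scan detected bound protein.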
row,Sequence,gcPBM binding intensity (ln)
1,AGGAGGATAGTTCACAGTACCCAGTAACTCTACGAG [XGTACX_site2008],6.14
2,AAAATTAATGTTGGTTGTACAAAAATTAAATATGGT [XGTACX_site66],6.85
3,GTACAAAGGACTATACATAGAAAAATATATATATAT [XGTACX_negctrl_site164],8.82
4,TTTATAATTCCATAATGTACAAATAAAATAAAAAAT [XGTACX_site663],6.57
5,TTATTTTATTTTTATACACACATGTTTTAATGTTCA [CACACA_site249],6.98
6,AATAAAAATAGGAAATGTACACATATATATATATAT [XGTACX_site1853],9.35
7,AAAGATTTAATCTATACATGCAAATATATAGAAAAG [TGCATGCA_site373],6.55
8,AAAAGATATTTGAATATACACACGATTTAAATTTAA [CACACA_site3865],6.46
9,TATATATACACACACACATGCATGCCGATATATATA [TGCATGCA_site29],7.28
10,GAACAAAATTTTATATGTACATAATATTTATATATA [XGTACX_site3667],6.76
11,AGATGCCAAGTATAAAGTACATATCAAAATGTATAT [XGTACX_site456],6.17
12,ATATATTCTATATATACATGCATATATATTATATGT [TGCATGCA_site185],6.71
13,ATGCAACTATATATATATATTATATGTATGAATAAT [XGTACX_negctrl_site434],6.95
14,TGAATAAATATGCAGCGTACATAATCCTCTTAAAAT [XGTACX_site8462],6.12
15,GTTAAATGAAAATATGTACACACTTGAAAATTTTTA [CACACA_site2924],6.48
16,TTAATAGAAATACGTGCACACTAAAGGGAAAACAAT [CACACA_site4923],9.36
17,ACAAGTATTAATTACACACTCAAAAAGAAAAAACAA [CACACA_site2281],6.49
18,TATATTCAAAATGGTACACACAATATTTAATTGTGC [CACACA_site2631],6.2
19,ACATTTTCTTATAAATGTACATATATATTATTATAT [XGTACX_site4404],6.33
20,TGACATATAAAATATTCACACACAAGTTATAGTTCT [CACACA_site9209],6.26
21,AAAGTATATAGGATACGTACATACATAAATAAATAA [XGTACX_site8216],6.66
22,GTACAAAATTGACAAGTGCAAAAATTAAAAGCAAGA [GTGCAC_site9838],9.19

row,Sequence,gcPBM binding intensity (ln)
1,GTGTGAGCACATTCGGGAGAGTTTTTTTTTTTTTTT [CACACA_negctrl_site1776],7
2,TATAAAAATAAGCACACACACAAATATAGATTTATT [CACACA_site6558],6.73
3,ATATATATATAAATATGTACATATATTTATTTCTTT [XGTACX_site3784],8.54
4,ATATATCATGCCAAGGGTACAAATGTGTAGTTGAAA [XGTACX_site2820],6.64
5,TTTTTTAAATATTATTTTTATGAGTAAATATATTAT [GTGCAC_negctrl_site277],6.15
6,AAAACAAACAAAAAAAAAAAAAAAAATATCAATCTA [TGCATGCA_negctrl_site203],5.92
7,GACGTGGAAAAAAAAACACACACAAAAAAAAAAAAA [CACACA_site9324],6.04
8,TGAACATCATTTTTATGTACACACACATATACGTTG [XGTACX_site3864],6.59
9,TAAAATAAAATAAGTAGTACATATATAATTATATAT [XGTACX_site6733],6.62
10,TTTTTTTTTTTTTTTACACACTGCATACAAGAAAAA [CACACA_site5642],6.46
11,AAAATACGAATATAAACATGCACCATATAGAACAAA [TGCATGCA_site925],8.35
12,TTTTTACAAAAAAAAAAAAAAAAAATAAAAATAAAT [CACACA_negctrl_site1738],5.57
13,TACAAATATAGATGCACACACATATACATACCTATA [CACACA_site7094],9.29
14,TATATATATATATATACATGCATTTTTGTTTGCTTA [TGCATGCA_site256],9.55
15,TTTTTTTTTTCTCCTGCATGCAGCATTTATATATTA [TGCATGCA_site390],6.97
16,GACAACGTTTCAATGTGTACATATTTATAATATATA [XGTACX_site2427],6.54
17,TATATATATATATGTACACACATCAATCATATTAAC [CACACA_site1946],9.26
18,ATTGAAAAACCGTTTAGTACATATCATCACGTTTGT [XGTACX_site1295],6.04
19,AATTTTAAATTTAATTTACACACTTTTCATAGCATT [CACACA_site9264],6.61
20,TATAAAACACACACACATATATATATATATTTATAT [TGCATGCA_negctrl_site48],7.02
21,ATTTACAAAAATTTTGTATAAAGGGATTTTAAAATG [TGCATGCA_negctrl_site350],6.79
22,TAATTACCATATGGTACACACATATTTATAGGTATA [CACACA_site7603],6.49

row,Sequence,gcPBM binding intensity (ln)
1,CGCGCACCCAGACACACACACACACCCATATATATA [CACACA_site2203],7.19
2,GATAAAATAATATATAGTACTTTTTTAAAATAAATA [XGTACX_site522],5.98
3,ACGTATAATATGTACACACACATATATACCAAAAAA [CACACA_site4661],6.64
4,GAAAAAAAAAAAAAAAGTACATTCTCTATTTCATGT [XGTACX_site3209],5.8
5,ATAAATTTAAATAGGAGTACACAGCTTTATATTTTG [XGTACX_site4176],6.58
6,TATGTAATAAAATATACACACAATATACTTATATAT [CACACA_site3682],6.3
7,ATTTTTAATGGATAAGTGCATAATATTATGATGCAA,9.68
8,AGCCACGGGTTATATACACACATAATCAAATAAAAT [CACACA_site6117],6.58
9,ACATAATATATATATTGTACAAATATATTATTGTTA [XGTACX_site3385],6.35
10,AAAAAATTATATAATAATAGAACTATACATTTTATT [GTGCAC_negctrl_site645],5.91
11,CACAAATATACAAATACACACAAATATACTCATATA [CACACA_site5339],6.58
12,AGAAAGATGCAAGAAACATGCAAAAAAAAAATTTCT [TGCATGCA_site725],6.38
13,GTACGTTTCTCCAGACTGCACTATACGACTCGTACA [GTGCAC_site9771],7.22
14,TGTATTCCTTTTTATAGTACAATTTAAAAGTATAAA [XGTACX_site2045],6.44
15,GTTATACAAAATAATACATGCATGTCCTACATATAT [TGCATGCA_site320],6.93
16,TAAAGAAATTCTTCATGTACTTATTATTTCTCTTTT [XGTACX_site6817],6.48
17,TATGGAATAAATTTATCCATACATCTTATAACATAT [XGTACX_negctrl_site500],6.47
18,TACATAAATTAATAGTCACACACGTATTTTTTATAT [CACACA_site8806],6.31
19,AGCTATATAAATAATACATGCATTGTTCAGGTATTT [TGCATGCA_site964],6.29
20,ATTTATAATATTCAAGTGCATATATATTTTTTACTT,8.2
21,TATGTATTAAATTTTACACACATGATTCTCTATATA [CACACA_site2298],6.62
22,AATTAAATATTATAAACACACATATATATTATTTTT [CACACA_site865],6.26

row,Sequence,gcPBM binding intensity (ln)
1,AAACGAACATATAAATGTACATATATATACATATAT [XGTACX_site8086],6.52
2,TACAAAAAAAATGTATTTAGGACATATATATGTTTA [XGTACX_negctrl_site455],6.39
3,ATTGTAAATATAGAAGTGCAAAAGGGTATGAAATGA,9.96
4,TACATAAAATATATCACACATATAATATATATATAT [CACACA_site5834],8.54
5,AAAAAAAAAAAAAAATATAAATATATATATATATAT [GTGCAC_negctrl_site28],9.18
6,ATAATATTTCTTACCTTTGGATGTTCTAATTTTTTT [CACACA_negctrl_site1317],6.67
7,ATATATATATATATATGTACATATATTCGATTATTA [XGTACX_site557],9.2
8,GAATTTCGATATATGTGTACGCATTTGTATTATAGG [XGTACX_site6332],6.7
9,TACATATTGCACAAATAAAAAAGAACAAAAAAAAAA [CACACA_negctrl_site1200],10.9
10,AAAAATAACATATAAACACACATATATATATATATA [CACACA_site3802],9.31
11,TACTTTATATTATATATATATATATATATATATATA [CACACA_negctrl_site1765],9.28
12,TATATAAAATAATAATGTACTCATTAAAATTATAGA [XGTACX_site4507],6.06
13,AAAGAAAAAAAAAAAAAAAAAAAAAAAATTATACAT [CACACA_negctrl_site7],5.89
14,ATGTATCCAATAGGAGTGCATAATTCTATTAACACC,8.25
15,ACAAAATATACAAAATGTACAAAATATACAAAATGT [XGTACX_site6467],6.22
16,TTATATCATTTTCCTGCACACATAAATTTATATAAT [CACACA_site8257],8.33
17,TATACAGATAAATACACACACACATATATATATATA [CACACA_site4845],9.22
18,TTATTCTAAAAGTGTTTGCACTTTTATAATCATATA [GTGCAC_site9929],7.41
19,CATATGTATTTATTCACACATATATATATATATATA [CACACA_site4207],9.45
20,AATAATAATTTGAATACACACAATAATATATATATA [CACACA_site2059],8.46
21,ATACAAAAAATCACATGTACATATTCTTAAATGGTA [XGTACX_site8502],6.26
22,TACCTTTCTTATTATTGAAAAGGAATATATAAATAG [CACACA_negctrl_site272],6.17
